# Source: PMC4336329 (PLoS ONE, 2015)
# Among all 310,000 compounds or so, about 2,200 (0.71%) showed an effect of 50% or more. The effect is printed as a negative number. Some of the results follow.
# Molecular target: human ether-à-go-go-related gene (hERG) potassium channel (human, UniProt Q12809)
# Assay: primary screen, population patch clamp on CHO cells stably expressing hERG
# Chain of human ether-à-go-go-related gene (hERG) potassium channel (Q12809 whole entry, looked up): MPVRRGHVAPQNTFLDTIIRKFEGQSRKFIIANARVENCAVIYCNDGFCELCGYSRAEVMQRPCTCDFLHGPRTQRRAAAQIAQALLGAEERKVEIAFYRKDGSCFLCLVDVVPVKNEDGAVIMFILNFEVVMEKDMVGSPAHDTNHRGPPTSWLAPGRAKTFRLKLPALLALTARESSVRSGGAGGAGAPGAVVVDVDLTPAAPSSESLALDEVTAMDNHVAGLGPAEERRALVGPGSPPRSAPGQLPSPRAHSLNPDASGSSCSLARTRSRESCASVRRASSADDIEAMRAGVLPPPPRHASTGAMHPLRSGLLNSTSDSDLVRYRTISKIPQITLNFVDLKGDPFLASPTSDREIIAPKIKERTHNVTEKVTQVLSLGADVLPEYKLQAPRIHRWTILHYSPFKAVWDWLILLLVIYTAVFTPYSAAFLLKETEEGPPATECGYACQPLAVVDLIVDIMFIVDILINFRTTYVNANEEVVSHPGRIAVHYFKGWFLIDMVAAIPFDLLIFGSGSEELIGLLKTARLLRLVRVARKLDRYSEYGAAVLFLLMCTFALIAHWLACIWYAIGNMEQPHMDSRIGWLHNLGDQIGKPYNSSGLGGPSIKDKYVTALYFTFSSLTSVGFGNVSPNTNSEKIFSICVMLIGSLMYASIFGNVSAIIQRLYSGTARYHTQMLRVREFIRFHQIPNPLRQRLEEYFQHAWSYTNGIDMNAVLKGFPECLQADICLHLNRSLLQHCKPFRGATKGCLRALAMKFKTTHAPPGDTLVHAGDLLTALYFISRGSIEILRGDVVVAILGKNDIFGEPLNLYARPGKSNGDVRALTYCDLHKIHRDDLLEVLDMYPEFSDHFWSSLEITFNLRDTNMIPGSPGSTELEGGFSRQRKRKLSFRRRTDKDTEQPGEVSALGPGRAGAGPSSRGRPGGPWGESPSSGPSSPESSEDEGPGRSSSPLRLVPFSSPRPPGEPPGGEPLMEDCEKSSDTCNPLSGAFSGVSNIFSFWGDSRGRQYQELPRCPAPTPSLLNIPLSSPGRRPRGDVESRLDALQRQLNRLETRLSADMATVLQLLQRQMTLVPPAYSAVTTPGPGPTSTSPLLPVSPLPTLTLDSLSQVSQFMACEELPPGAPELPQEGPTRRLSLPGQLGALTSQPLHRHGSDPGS
row,SMILES,"hERG current change (%, negative = inhibition) at 1uM"
1,COCC(C)n1c(C)cc(C(=O)CSc2nc(C)c(C)c(C)n2)c1C (stereo not shown),4.28%
2,CC(C)(C)c1ccccc1NC(=O)CN1C(=O)NC2(CCCCCC2)C1=O,6.91%
3,O=S(=O)(c1ccccc1)N(CC1CO1)c1cc(Cl)ccc1Cl (stereo not shown),12.1%
4,Cc1ccc(-c2noc(CCC(=O)NCc3ccco3)n2)cc1,5.54%
5,COc1ccc(NC(=O)COC(=O)c2cc3c(s2)CCC3)cc1,-9.61%
6,O=C(CSc1nc2ccccc2n1Cc1ccc(Cl)cc1)N/N=C/c1ccccc1C(=O)O,9.65%
7,O=C(NC1CC2CCCC(C1)N2C(=S)Nc1ccc(Cl)cc1)C1CC1 (stereo not shown),4.82%
8,CSc1ccccc1NC(=O)C(C)N1C(=O)c2ccccc2S1(=O)=O (stereo not shown),8.25%
9,Cc1cccc(NC(=S)N(CCCN2CCCC2)Cc2cccn2Cc2ccc(Cl)cc2)c1,-16.6%
10,CC(C)OCCCN1CC(=O)N2C(c3cccc([N+](=O)[O-])c3)c3[nH]c4ccccc4c3C[C@H]2C1=O (stereo partly shown),8.95%
11,COc1cc2cc(C(=O)NCCc3ccccc3)[nH]c2cc1OC,13.9%
12,COCCSc1ccccc1C(=O)Nc1cc([N+](=O)[O-])ccc1OC,6.6%
13,CN(c1ccccc1)c1nc(N2CCCC2)nc(-n2ccnc2)n1,-1.96%
14,O=C1NC2(CCCCCC2)C(=O)N1Cc1ccccc1Br,12.6%
15,OCC[C@H]1C[C@H](O)[C@@H](O)[C@@]2(Cc3ccccc3O2)O1,15%
16,COc1ccc(NC(=O)CCOc2ccccc2C)cc1S(=O)(=O)N1CCCCC1,6.92%
17,CC(C)C(=O)N1C2CCC1CC(O)(c1ccc(F)cc1)C2 (stereo not shown),18.6%
18,Cc1ccc(C)n1-c1nccc(-c2ccco2)n1,17.1%
19,COC(=O)c1ccc(C(=O)NC2CCCc3c2cnn3-c2cc(F)cc(F)c2)nc1 (stereo not shown),8.06%
20,Cc1ccc2c(c1)-c1c(ssc1=S)C(C)(C)N2C(=O)c1ccco1,9.8%
21,Cc1nn(Cc2ccc(Cl)cc2)c(Cl)c1/C=N/NC(=O)c1cccnc1,-13.2%
22,CC1Cc2ccccc2N1CC(=O)Nc1ccc2c(c1)OCCCO2 (stereo not shown),2.15%
23,O=C(NNC(=O)c1cc(-c2ccco2)nc2ccccc12)c1ccccc1,6.48%
24,CCOc1ccc(NC(=O)C2CCN(C(=O)N3CCOc4ccccc43)CC2)cc1,10.3%
25,CC(c1nnc(SCn2nnc3ccccc3c2=O)n1-c1ccc(Cl)cc1)N(C)C (stereo not shown),11.9%
26,Cn1ccnc1C(O)c1cc(C(C)(C)C)c(O)c(C(C)(C)C)c1 (stereo not shown),-5.25%
27,COc1ccc(NC(=O)N2CCN(C(=O)c3ccco3)CC2)c(OC)c1,-0.573%
28,O=C(C1COc2ccccc2O1)N1CCN(c2nc3ccccc3s2)CC1 (stereo not shown),5.11%

row,SMILES,"hERG current change (%, negative = inhibition) at 1uM"
1,Cc1c(C(=O)N2CCCCCC2)c(S(=O)(=O)Nc2ccccc2F)c(C)n1C,5.6%
2,CC(=O)Nc1cc(C(F)(F)F)ccc1N1CCOCC1,-8.28%
3,Cc1ccc(CC(=O)Nc2ccc(OC(F)F)c(Cl)c2)cc1C,0.524%
4,Cc1nc(Nc2ccc(Br)cc2Br)c([N+](=O)[O-])c(=O)[nH]1,3.01%
5,CCCN1C2CCCC1CC(NC(=S)Nc1cc(C)ccc1C)C2 (stereo not shown),8.55%
6,Cc1ccccc1C(=O)c1cn[nH]c1-c1ccccc1O,13.2%
7,O=C(CCC(=O)Nc1ccccc1)NNC(=O)COc1ccccc1,10.7%
8,CCOCCCN(C)C1CCN(S(=O)(=O)c2csc(C(N)=O)c2)CC1,6.61%
9,Cc1cc(C)cc(C(=O)NCCn2cc(SCC(=O)N3CCOCC3)c3ccccc32)c1,6.95%
10,CCOc1c(OC(C)=O)ccc(/C=C/c2ccc3cccc(OC(C)=O)c3n2)c1[N+](=O)[O-],-0.604%
11,CCOC(=O)c1c(C)n(Cc2ccccc2)c2ccc(O)cc12,6.47%
12,O=C(/C=C/c1ccccc1)OCC(=O)N1CCN(c2ccccc2)CC1,10.5%
13,CN(c1ccccc1)S(=O)(=O)c1ccc(C(=O)Nc2ccncc2)cc1,1.78%
14,CCN(Cc1ccccc1)S(=O)(=O)CCNC(=O)c1ccccc1,-5.92%
15,Cc1ccc(Nc2nnc(SCC(=O)NCCN3C(=O)CSC3=O)s2)cc1,-5.47%
16,CCN1CCN(c2cc(C)c3cc(NC(=O)CCC(=O)Nc4ccc(OC)c(OC)c4)ccc3n2)CC1,14.7%
17,Cl.O=C(CN1CCCCCC1)N1c2ccccc2C=Cc2ccccc21,-2.92%
18,CCOc1cc(Br)ccc1S(=O)(=O)NCc1ccccc1,-14.9%
19,O=C(COC(=O)Cc1ccccc1[N+](=O)[O-])Nc1nnc(-c2ccccc2)o1,9.9%
20,Cc1c(C)c2c(OCC(=O)NCc3ccncc3)cc3c(c2oc1=O)CCC(C)(C)O3,14%
21,Cc1ccc(S(=O)(=O)CCCS(=O)(=O)c2ccc(C)cc2)cc1,0.115%
22,CN(C)C(=O)CSc1nc(-c2ccccc2)nc2c1CCCC2,20%
23,COc1cc(NS(=O)(=O)c2ccc3c(c2)oc(=O)n3C)cc(OC)c1OC,16%
24,COC(=O)c1ccc(C)c(NC(=O)CN(c2ccc3c(c2)OCO3)S(C)(=O)=O)c1,10.8%
25,COC(=O)c1ccc(CSCc2ccc(C(=O)OC)o2)o1,12.3%
26,CCCCN(CC)C(=O)c1oc2ccc(S(=O)(=O)N3CCCC3)cc2c1C,9.89%
27,COc1ccc(CCNCC(=O)Nc2c(C)cc(C)cc2C)cc1OC.Cl,1.73%
